# Source: the supplement of paper PMC10037445
# Whole data set: some 2,900 compounds, median “NF-kB SEAP reporter activity, fold change vs agonist alone” near 0.99, cut for the highest 2% near 2.6. This is one part of the list.
# Columns and labels:
# RAW-Dual [1] = test: NF-kB SEAP reporter activity, fold change vs agonist alone; cytotoxicity flag (confluency mask): not cytotoxic; higher = enhanced NF-kB activity
# Method in brief: (§1)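 Reporter activity is given as fold change relative to agonist-alone wells. To measure it, 50 nL of library stock was pin-tooled onto RAW-Dual macrophages (50,000 cells/well, DMEM, 384-well plates), a PRR agonist followed 1 h later, and cells stayed at 37 °C, 5% CO2. Twenty hours on, supernatant was assayed for IRF (QuantiLuc luminescence) and NF-κB (QuantiBlue, 620 nm absorbance), and wells under 70% of agonist-control IncuCyte confluency in both mask sets were marked cytotoxic.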
# RAW-Dual [2] = test: NF-kB SEAP reporter activity, fold change vs agonist alone; higher = enhanced NF-kB activity
# Method in brief: as §1
# RAW-Dual [3] = test: NF-kB SEAP reporter activity, fold change vs agonist alone; cytotoxicity flag (confluency mask): cytotoxic (confluency <70% of control); higher = enhanced NF-kB activity
# Method in brief: as §1
# [4] = agonist: ODN 1826 (TLR9) 0.5 ug/mL
# [5] = agonist: Pam2CSK4 (TLR2/6) 0.1 ug/mL
# [6] = agonist: Pam3CSK4 (TLR2/1) 0.1 ug/mL
# [7] = library stock concentration (final ~1000-fold dilution): 10 mM, cytotoxicity flag (confluency mask): not cytotoxic, agonist: Imiquimod (TLR7) […]
# [8] = library stock concentration (final ~1000-fold dilution): 10 mM, cytotoxicity flag (confluency mask): not cytotoxic, agonist: MPLA (TLR4) […]
# [9] = library stock concentration (final ~1000-fold dilution): 10 mM, cytotoxicity flag (confluency mask): cytotoxic (confluency <70% of control), agonist: Imiquimod (TLR7) […]
# [10] = library stock concentration (final ~1000-fold dilution): 10 mM, cytotoxicity flag (confluency mask): cytotoxic (confluency <70% of control), agonist: MPLA (TLR4) […]
compound,measurement,setting,value
CC(C)(C)c1nc(-c2cccc(NS(=O)(=O)c3c(F)cccc3F)c2F)c(-c2ccnc(N)n2)s1.CS(=O)(=O)O (library stock concentration (final ~1000-fold dilution): 10 mM),NF-kB SEAP reporter activity,RAW-Dual [1]; agonist: LPS (TLR4) 0.1 ug/mL,3.17
same,NF-kB SEAP reporter activity,RAW-Dual [1]; [4],3.05
O=C(c1ccc(F)cc1)C1CCN(CCn2c(=O)[nH]c3ccccc3c2=O)CC1,NF-kB SEAP reporter activity,"RAW-Dual [2]; library stock concentration (final ~1000-fold dilution): 2 mM, cytotoxicity flag (confluency mask): not cytotoxic, agonist: Imiquimod (TLR7) […]",0.664
same,NF-kB SEAP reporter activity,"RAW-Dual [2]; library stock concentration (final ~1000-fold dilution): 2 mM, cytotoxicity flag (confluency mask): not cytotoxic, agonist: MPLA (TLR4) […]",1.06
O=C(c1ccc(F)cc1)C1CCN(CCn2c(=O)[nH]c3ccccc3c2=O)CC1 (library stock concentration (final ~1000-fold dilution): 2 mM),NF-kB SEAP reporter activity,RAW-Dual [1]; agonist: LPS (TLR4) 0.1 ug/mL,1.41
same,NF-kB SEAP reporter activity,RAW-Dual [1]; [4],1.11
same,NF-kB SEAP reporter activity,RAW-Dual [1]; [5],1.08
same,NF-kB SEAP reporter activity,RAW-Dual [1]; [6],0.948
Nc1nccc(Oc2ccc(NC(=O)c3c[nH]cc(-c4ccc(F)cc4)c3=O)cc2F)c1Cl (library stock concentration (final ~1000-fold dilution): 10 mM),NF-kB SEAP reporter activity,RAW-Dual [1]; agonist: LPS (TLR4) 0.1 ug/mL,0.237
same,NF-kB SEAP reporter activity,RAW-Dual [1]; [4],0.239
same,NF-kB SEAP reporter activity,RAW-Dual [1]; [5],0.0785
same,NF-kB SEAP reporter activity,RAW-Dual [1]; [6],0.188
Nc1nccc(Oc2ccc(NC(=O)c3c[nH]cc(-c4ccc(F)cc4)c3=O)cc2F)c1Cl,NF-kB SEAP reporter activity,RAW-Dual [2]; [7],0.254
same,NF-kB SEAP reporter activity,RAW-Dual [2]; [8],0.313
C#CCNC1CCc2ccccc21 (stereo not drawn),NF-kB SEAP reporter activity,RAW-Dual [2]; [7],0.916
same,NF-kB SEAP reporter activity,RAW-Dual [2]; [8],1.14
C#CCNC1CCc2ccccc21 (stereo not drawn) (library stock concentration (final ~1000-fold dilution): 10 mM),NF-kB SEAP reporter activity,RAW-Dual [1]; agonist: LPS (TLR4) 0.1 ug/mL,1.06
same,NF-kB SEAP reporter activity,RAW-Dual [1]; [4],0.931
same,NF-kB SEAP reporter activity,RAW-Dual [1]; [5],1.04
same,NF-kB SEAP reporter activity,RAW-Dual [1]; [6],1.08
CNC(C)C(=O)NC1CN(C(=O)CC(C)C)CCC2CCC(C(=O)NC(c3ccccc3)c3ccccc3)N2C1=O (stereo not drawn) (library stock concentration (final ~1000-fold dilution): 10 mM),NF-kB SEAP reporter activity,RAW-Dual [1]; agonist: LPS (TLR4) 0.1 ug/mL,0.854
same,NF-kB SEAP reporter activity,RAW-Dual [1]; [4],1.1
same,NF-kB SEAP reporter activity,RAW-Dual [1]; [5],0.925
same,NF-kB SEAP reporter activity,RAW-Dual [1]; [6],1.08
CNC(C)C(=O)NC1CN(C(=O)CC(C)C)CCC2CCC(C(=O)NC(c3ccccc3)c3ccccc3)N2C1=O (stereo not drawn),NF-kB SEAP reporter activity,RAW-Dual [2]; [7],0.948
same,NF-kB SEAP reporter activity,RAW-Dual [2]; [8],0.82
Clc1ccc2c(c1)CCc1cccnc1C2=C1CCNCC1 (library stock concentration (final ~1000-fold dilution): 10 mM),NF-kB SEAP reporter activity,RAW-Dual [3]; agonist: LPS (TLR4) 0.1 ug/mL,0.944
same,NF-kB SEAP reporter activity,RAW-Dual [3]; [4],0.513
same,NF-kB SEAP reporter activity,RAW-Dual [3]; [5],0.804
same,NF-kB SEAP reporter activity,RAW-Dual [3]; [6],0.831
Clc1ccc2c(c1)CCc1cccnc1C2=C1CCNCC1,NF-kB SEAP reporter activity,RAW-Dual [2]; [9],1.49
same,NF-kB SEAP reporter activity,RAW-Dual [2]; [10],1.3
O=C(Nc1c[nH]nc1-c1nc2cc(CN3CCOCC3)ccc2[nH]1)NC1CC1,NF-kB SEAP reporter activity,RAW-Dual [2]; [9],0.338
same,NF-kB SEAP reporter activity,RAW-Dual [2]; [10],0.256
O=C(Nc1c[nH]nc1-c1nc2cc(CN3CCOCC3)ccc2[nH]1)NC1CC1 (library stock concentration (final ~1000-fold dilution): 10 mM),NF-kB SEAP reporter activity,RAW-Dual [3]; agonist: LPS (TLR4) 0.1 ug/mL,0.238
same,NF-kB SEAP reporter activity,RAW-Dual [3]; [4],0.21
same,NF-kB SEAP reporter activity,RAW-Dual [3]; [5],0.0962
same,NF-kB SEAP reporter activity,RAW-Dual [3]; [6],0.148
